Publication PMC5540273 (PLoS ONE, 2017)
Where two headings read alike, the source gives them in different places. For some of these results: Shown are results outside the selection of strong results, which stands elsewhere. This is a selection; strong and weak results do not stand in their true shares.

Assays:
TBK1 = details: concentration: 1 μM,replicates: in singlicate; n = 1
TEC = details: concentration: 1 μM,replicates: in singlicate; n = 1
TESK1 = details: concentration: 1 μM,replicates: in singlicate; n = 1
TGFBR1 = details: n = 1
TGFBR2 = details: concentration: 1 μM,replicates: in singlicate; n = 1
TIE1 = details: concentration: 1 μM,replicates: in singlicate; n = 1
TIE2 = test system: T1, TIE2; details: concentration: 1 μM,replicates: in singlicate; n = 1
T1 construct: gene TEK

TLK1 = details: concentration: 1 μM,replicates: in singlicate; n = 1
TLK2 = details: concentration: 1 μM,replicates: in singlicate; n = 1
TNIK = details: concentration: 1 μM,replicates: in singlicate; n = 1
[1] = concentration: 1 μM,replicates: in singlicate
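Also: KINOMEscan kinase panel screen.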

Compound | %Inh (TBK1) [%] | %Inh (TEC) [%] | %Inh (TESK1) [%] | %Inh (TGFBR1; [1]) [%] | %Inh (TGFBR2) [%] | %Inh (TIE1) [%] | %Inh (TIE2) [%] | %Inh (TLK1) [%] | %Inh (TLK2) [%] | %Inh (TNIK) [%] | %Inh (TGFBR1; 1 µM) [%]
Cc1ccc(C)c(Oc2nccc(-c3c(-c4ccc(F)cc4)ncn3C3CCNCC3)n2)c1.O=C(O)C(F)(F)F.O=C(O)C(F)(F)F.O=C(O)C(F)(F)F [SB-284852] | 40 | 10 | 26 | 0 | 3 | 0 | 17 | 0 | 0 | 28 | 
COc1cccc(C2=C(Nc3ccc(SC)cc3)C(=O)NC2=O)c1 [SB-331032] | 23 | 9 | 7 | 22 | 0 | 0 | 10 | 9 | 20 | 35 | 
O=C1NC(=O)C(c2ccc(Cl)cc2)=C1Nc1cccc(O)c1 [SB-333613] | 30 | 1 | 0 | 41 | 1 | 10 | 9 | 23 | 20 | 38 | 
COc1ccc(C2=C(Nc3cccc(Cl)c3)C(=O)NC2=O)cc1 [SB-326892] | 22 | 3 | 23 | 5 | 7 | 0 | 0 | 44 | 0 | 0 | 
O=C1NC(=O)C(c2ccccc2)=C1Nc1ccc(Cl)c(C(=O)O)c1 [SB-390532] | 8 | 0 | 12 | 5 | 0 | 0 | 0 | 0 | 0 | 0 | 
O=C1NC(=O)C(c2ccccc2)=C1Nc1cc(Cl)c(O)c(Cl)c1 [SB-390530] | 0 | 18 | 13 | 29 | 26 | 17 | 11 | 14 | 16 | 0 | 
O=C1NC(=O)C(c2ccc(Cl)cc2)=C1Nc1ccccc1 [SB-317661] | 38 | 0 | 0 | 14 | 0 | 0 | 0 | 0 | 11 | 0 | 
CSc1ccc(NC2=C(c3cccc(Cl)c3)C(=O)NC2=O)cc1 [SB-341528] | 14 | 0 | 0 | 3 | 0 | 11 | 0 | 8 | 0 | 4 | 
CS(=O)(=O)c1ccccc1-c1nc(-c2ccc(F)cc2)c(-c2ccncc2)[nH]1 [SB-213663] | 94.3 | 0 | 11 | 15 | 14 | 3 | 10 | 13 | 0 | 48 | 
O=C1NC(=O)C(c2ccccc2Cl)=C1Nc1cccc(C(=O)O)c1 [SB-390526] | 12 | 0 | 0 | 0 | 0 | 0 | 0 | 6 | 0 | 0 | 
O=C(O)c1ccc(-c2nc(-c3ccc(F)cc3)c(-c3ccncc3)[nH]2)cc1 [SB-202620] | 37 | 3 | 16 |  | 35 | 0 | 5 | 0 | 18 | 29 | 17
O=C1NC(=O)C(c2ccc(Cl)cc2)=C1Nc1ccc(O)c(Cl)c1 [SB-405367] | 8 | 5 | 10 | 15 | 72 | 0 | 0 | 13 | 8 | 0 | 
O=C1NC(=O)C(c2ccccc2Cl)=C1Nc1ccccc1 [SB-376715] | 15 | 0 | 5 | 0 | 0 | 0 | 8 | 52 | 39 | 0 | 
Cc1cc(C)cc(Oc2nccc(-c3c(-c4ccc(F)cc4)ncn3C3CCNCC3)n2)c1.O=C(O)C(F)(F)F.O=C(O)C(F)(F)F.O=C(O)C(F)(F)F [SB-284851] | 49 | 16 | 28 | 20 | 0 | 0 | 14 | 0 | 0 | 22 | 
O=C1NC(=O)C(c2ccc(Cl)cc2)=C1Nc1cccc(C(=O)O)c1 [SB-360737] | 11 | 19 | 27 | 20 | 0 | 0 | 7 | 0 | 0 | 0 | 
O=C1NC(=O)c2c1c(-c1ccccc1)cc1[nH]c3ccc(O)cc3c21 | 47 | 0 | 5 | 2 | 0 | 13 | 15 | 35 | 5 | 89 | 
